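Results reflect a 48-hour exposure of cells in 96-well plates to compound at five concentrations. Here, GI50 denotes the concentration required for 50% inhibition of growth. At the TGI there is no net growth.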
Test system: NCI-H322M lung
Experiment: NCI tumour cell line growth inhibition, 48 h

Row | SMILES | GI50 [µM] | TGI [µM]
1 | O=C(N/N=C/c1ccc(B(O)O)o1)c1[nH]c2ccc(Br)cc2c1-c1ccccc1 | 41.4 | > 100
2 | CN1CCN(c2ccc(C(=O)/C=C/c3ccc(OC(F)F)cc3)cc2)CC1 | 14.4 | 27.4

— PubChem BioAssay (NCI)
